Measurements taken from PubChem BioAssay AID1645882 (National Center for Advancing Translational Sciences (NCATS), 2021).
Out of some 16,000 compounds screened, about 120 (0.75%) were called active. Roughly 4% stayed inconclusive and do not appear here. Calls come from the whole dose curve; as a rule, active = well fitted inhibition curve with a large enough effect; inconclusive = small, poorly fitted or top-dose-only effect; inactive = no such curve, though single readings can be large or run the other way. The list shows a part of the results.

target: Rap guanine nucleotide exchange factor 3 (Homo sapiens) (UniProt O95398); assay: Validation qHTS for antagonist of cAMP-regulated guanine nucleotide exchange factor 3 (EPAC1); conditions: EPAC1 Rap1B-BODIPY-GDP exchange, fluorescence; series mostly up to 150 µM; activity change, negative = inhibition: at the top concentration;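 note: plate controls were DMSO for no effect and ATA control for full effect; nearly all actives have a fitted effect of over 75% in size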
Outline: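 Nucleotide exchange followed as fluorescence loss when BODIPY-GDP leaves Rap1B (480 nm excitation, 540 nm emission), read at 5 min intervals over 30 min. Reaction: 100 nM EPAC1, 250 nM RAP1B-BODIPY-GDP, 50 uM GDP; ATA and DMSO define normalization.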

Chain of UniProt O95398 (O95398 whole entry, looked up): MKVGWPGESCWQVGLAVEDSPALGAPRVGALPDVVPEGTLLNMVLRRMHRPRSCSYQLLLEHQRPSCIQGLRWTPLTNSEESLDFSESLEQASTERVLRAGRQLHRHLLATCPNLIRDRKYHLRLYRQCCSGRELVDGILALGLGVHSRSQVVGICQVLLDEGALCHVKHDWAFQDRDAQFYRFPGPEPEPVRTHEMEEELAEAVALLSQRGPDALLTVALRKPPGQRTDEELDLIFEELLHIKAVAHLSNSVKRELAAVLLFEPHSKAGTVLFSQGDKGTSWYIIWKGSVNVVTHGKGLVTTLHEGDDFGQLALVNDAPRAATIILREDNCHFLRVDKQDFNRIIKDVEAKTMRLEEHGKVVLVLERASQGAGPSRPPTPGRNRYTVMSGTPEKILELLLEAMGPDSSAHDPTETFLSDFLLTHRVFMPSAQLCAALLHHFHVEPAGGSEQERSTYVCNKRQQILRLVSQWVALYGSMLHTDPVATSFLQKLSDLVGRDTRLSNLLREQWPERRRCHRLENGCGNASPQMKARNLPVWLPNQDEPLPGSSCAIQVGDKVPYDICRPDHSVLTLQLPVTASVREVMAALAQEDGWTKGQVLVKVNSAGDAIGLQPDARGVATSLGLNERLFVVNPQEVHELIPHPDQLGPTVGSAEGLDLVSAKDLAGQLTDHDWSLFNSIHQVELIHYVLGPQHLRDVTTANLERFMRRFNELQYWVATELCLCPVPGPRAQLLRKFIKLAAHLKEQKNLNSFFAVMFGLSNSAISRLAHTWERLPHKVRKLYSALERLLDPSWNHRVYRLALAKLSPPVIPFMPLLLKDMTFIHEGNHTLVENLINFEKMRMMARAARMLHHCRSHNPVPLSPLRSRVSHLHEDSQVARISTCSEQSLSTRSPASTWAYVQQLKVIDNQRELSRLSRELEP

Compound | activity change, negative = inhibition
N#C/C(=C\c1ccc(O)c(O)c1)C(N)=O | inactive
CNC(=O)OCc1cccc(COC(=O)NC)n1 | inactive: 9.91%
CC(C)(C)C(=O)OCOP(=O)(COCCn1cnc2c(N)ncnc21)OCOC(=O)C(C)(C)C | inactive: 7.45%
c1ccc(CNc2ncncc2-c2ccc3c(c2)OCO3)cc1 | inactive: 1.45%
O=C(/C=C/c1ccc(O)c(O)c1)O[C@@H]1C[C@@](O)(C(=O)O)C[C@H](O)[C@@H]1O | inactive: 15%
CCC1C(=O)NCCN1Cc1ccc2c(c1)CN(Cc1ccc(OC)c(OC)c1)CCO2 (centres undefined) | inactive: 8.54%
O=S(=O)(c1cccc2c(I)cccc12)N1CCCNCC1 | inactive
CC(=O)NCCc1c[nH]c2ccc(O)cc12 | inactive
CCCc1nc2cccnc2n1C1CCN(C(=O)Cn2nccc2C)CC1 | inactive: -12.5%
O=C(C[n+]1cccc2cccc(O)c21)c1ccccc1 | inactive: -10.1%
O=C1[C@H](Cc2ccccc2)NC/C=C\C[C@H](c2ccco2)N1Cc1ccccc1 | inactive: -3.42%
CN1CCN(c2ncc3nc(-c4cccs4)c(=O)n(CCc4ccccc4)c3n2)CC1 | inactive: 28.6%
O=C(NCC1Cc2cccc(-c3ncccn3)c2O1)C1CCCO1 (centres undefined) | inactive: 8.4%
Cc1cccc(CNc2cc(-c3cccc(NS(C)(=O)=O)c3)ncn2)c1 | inactive: 19.2%
N#CC(c1ccc(Cl)cc1)c1c(Cl)cc(-n2ncc(=O)[nH]c2=O)cc1Cl (centres undefined) | inactive: -17.6%
O=c1ccc2ccc(O)c(O)c2o1 | inactive: 8.18% [at 75.8 µM]
O=S(=O)(NCc1ccccc1Br)c1ccccc1Br | inactive: -8.39%
OC1(c2cccnc2)CCN(Cc2ccc3c(c2)CN(Cc2ccc(F)c(F)c2)CCO3)CC1 | inactive: 13.2%
COc1ccccc1-c1ccc2ncnc(N(C)C)c2c1 | inactive: 16.1%
CC(C)(O)[C@@H]1CCC[N+]2(C)CCCC[C@H]12 (some centres undefined) | inactive: 28.1%
O=C(c1ccccc1-n1cccn1)N1CCOc2ccc(CN3CCOCC3)cc2C1 | inactive: 20.7%
COc1ccc(-n2c(=O)c(CCc3ccccc3)nc3cnc(N4CCNCC4)nc32)cc1 | inactive: 10.6%
C=Cc1c(C)c2cc3nc(cc4[nH]c(cc5nc(cc1[nH]2)C(C)=C5CCC(=O)OC)c(CCC(=O)O)c4C)[C@@]1(C)C3=CC=C(C(=O)OC)[C@H]1C(=O)OC | inactive: 5.56%
CN(C)C(=O)c1ccc(-c2nccc(NCc3cccnc3)n2)cc1 | inactive: 13.1%
OC(CN1CCN(c2cccc(Cl)c2)CC1)C(c1ccccc1)c1ccccc1 (centres undefined) | inactive
CC(=O)C[C@H]1c2cc(C(F)(F)F)ccc2S(=O)(=O)N1c1ccccc1 | inactive: -16.6%

Compound | activity change, negative = inhibition
COC1(C)CCC2OC2(C)CCC2C1CC2(C)C (centres undefined) | inactive: 20.5%
Cc1cc(-c2ccnc(-n3ncc(C(=O)NCC(C)(C)N4CCOCC4)c3C)n2)c(C)s1 | inactive: 20.2%
CN(C)c1ccc(/C=C2/CCCc3c2nc2ccccc2c3C(=O)O)cc1 | inactive: 19.8%
Nc1ccc(CCNc2ncnc3c2ncn3C2OC(CO)C(O)C2O)cc1 (centres undefined) | inactive
N[C@@H](C(=O)O)[C@H](CC(=O)O)c1ccc(Cl)cc1 | inactive: 4.02%
C/C(=C\c1ccc(C(=O)O)cc1)c1ccc2c(c1)C(C)(C)CCC2(C)C | inactive
OC[C@H]1O[C@@H](n2cnc3c(Nc4ccccc4)ncnc32)[C@H](O)[C@@H]1O | inactive: 9.87% [at 75.8 µM]
CN(C)c1nc2cc(Cl)ccc2cc1CN(Cc1ccc2c(c1)OCO2)C(=O)c1ccoc1 | inactive: 2.91%
C[C@@H]1CN(Cc2ccc3c(c2)CN(Cc2cccc4cccnc24)CCO3)C[C@H](C)O1 | inactive: 7.11%
Cc1cnc(CNc2ncnc3ccc(-c4ccccc4C#N)cc23)cn1 | inactive: 18.3%
Cn1c(-c2ccncc2)nc2cc(C(=O)N[C@H]3CCCCNC3=O)cc(NC(=O)C3CCC3)c21 | inactive: 11.7%
COc1cc(=O)n2c(c1C(=O)NCc1ccco1)CCN(Cc1ccccc1)CC2 | inactive: 15%
NCCNS(=O)(=O)c1cccc2cnccc12 | inactive
CS(=O)(=O)N1CCC2(CCCN(C(=O)Nc3cccc(F)c3)C2)CC1 | inactive: 11.8%
COCCNc1nc(-c2ccccc2CN(C)C)nc2ccccc12 | inactive: 7.76%
NC(N)=Nc1nc(CSCC/C(N)=N/S(N)(=O)=O)cs1 | inactive
N#Cc1cccc(NC(=O)N2CC3(CCN(C(=O)c4cnccn4)CC3)C2)c1 | inactive: 18.9%
Cc1cc(-c2ccccc2)nnc1NCCN1CCOCC1 | inactive
COc1ccc(-c2cc(=O)c3c(OC(C)=O)cc(OC(C)=O)cc3o2)cc1 | inactive: -1.11%
CN(Cc1ccco1)c1ncnc2ccc(-c3ccccc3C#N)cc12 | inactive: -12.4%
CCNc1ncc2nc(-c3ccccc3)c(=O)n(CCc3ccccc3)c2n1 | inactive: 2.65%
CC/C(=C(/CC)c1ccc(O)cc1)c1ccc(O)cc1 | inactive
O=c1cc(-c2ccc(O)cc2)oc2cc(O[C@H]3OC(CO)C(O)C(O)C3O)cc(O)c12 (some centres undefined) | inactive: 5.46%
CC1=C(/C=C/C(C)=C/C=C/C(C)=C\C(=O)O)C(C)(C)CCC1 | inactive
Cc1ccccc1C(=O)N1CCc2c(cnc(C)c2CNC(=O)CN2CCCCC2)C1 | inactive: 19.3%
CC(=O)O[C@@H]1C(=O)O[C@@H]2[C@H]1OC(=O)[C@@H]2OC(C)=O | inactive: 15.6%

Compound | activity change, negative = inhibition
Cc1cc(S(=O)(=O)NCc2nc(N3CCCC3)c3cc(Cl)ccc3n2)c(C)s1 | inactive: 9.5%
Cc1ccccc1-c1cc(Nc2ccc(F)cc2)ncn1 | inactive: 11.1%
Cc1cccc(C(=O)N2CCOc3ccc(CN(C)Cc4cc(C5CC5)n[nH]4)cc3C2)n1 | inactive: 19.1%
CN(C)c1ccc(/C=C/c2ccnc3c2ccc2c(/C=C/c4ccc(N(C)C)cc4)ccnc23)cc1 | inactive: 19.8%
NC1C=CC=C(C(=O)O)C1 (centres undefined) | inactive
COc1ccc2[nH]cc(CCNc3cc(-c4ccccc4CN(C)C)ncn3)c2c1 | inactive: 19.3%
C[C@H](NC(=O)OC(C)(C)C)[C@@H](O)c1ccco1 | inactive: 1.01%
CSc1ccc2c(c1)N(CCC1CCCCN1C)c1ccccc1S2 (centres undefined) | inactive
CCCCC[C@H]1CN(CCCC)C(=O)[C@@H]1CC(=O)NCc1ccc(OC)cc1 | inactive: -16.4%
Cc1oc(-c2ccccc2NS(C)(=O)=O)nc1CN(C)Cc1ccc(Cl)cc1 | inactive: -4.25%
C[C@H]1CC[C@@H]2N(C1)C[C@H]1[C@@H]3C[C@H]4[C@@H](C/C(=N\O)[C@H]5C[C@@H](O)CC[C@@]54C)[C@@H]3CC[C@H]1[C@]2(C)O | inactive: 20.3%
COc1cccc(-c2nc(NC3CCNCC3)c3ccccc3n2)c1 | inactive: 0.869%
COc1cc(-c2ccc(=O)[nH]n2)ccc1OC(F)F | inactive
COc1ccc(C(=O)NCc2nnc(SC)n2-c2ccccc2C)c(OC)c1OC | inactive: 15%
N[C@H](CS)C(=O)O | inactive: 14.2%
C(=C\c1ccncc1)/c1ccccc1 | inactive
CNC(=O)[C@H]1O[C@H](n2cnc3c(NCc4cccc(I)c4)nc(Cl)nc32)[C@@H](O)[C@@H]1O | inactive: -9.07%
COc1ccc(CN([C@H](C)CO)S(=O)(=O)N(Cc2ccccc2)[C@H](CO)C(C)C)cc1 | inactive: -19.2%
Cc1ccc(C(=O)C[n+]2cccc3cccc(O)c32)cc1 | inactive: 26.1%
Cc1ncc2c(c1CNC(=O)/C=C/c1cccs1)CCN(C(=O)c1c(C)noc1C)C2 | inactive: 12.7%
COC(=O)N1c2ccccc2C23[C@@H]4CN5CCC[C@]6(CCC12C(O)(C6)C4=O)[C@H]53 | inactive: 11.1%
COc1ccc(CN2CCN(C(C)=O)CC2)cc1OC1CCN(C(=O)c2ccc3ccccc3n2)CC1 | inactive: -11.9%
CCCC(CCC)C(=O)OC1C[C@H]2CC[C@@H](C1)[N+]2(C)C (some centres undefined) | inactive
CC(N)=NCCC[C@H](N)C(=O)O | inactive: 5.88%
Cc1noc(C)c1C(=O)N1CCC2(CCCN(C(=O)Nc3ccccc3)C2)CC1 | inactive: 7.69%
CC[N+](CC)(CC)CC(=O)Nc1c(C)cccc1C | inactive

Compound | activity change, negative = inhibition
COc1ncc2ncc(=O)n(Cc3cccs3)c2n1 | inactive: 7.59%
COc1ccc2[nH]cc(CCNc3cc(-c4c(C)noc4C)ncn3)c2c1 | inactive: -18.5%
Cc1ccc(C(=O)N(Cc2cc3cccc(C)c3nc2N2CCC(O)CC2)C2CC2)cc1 | inactive: -8.54%
CC(O)(COc1ccccc1)c1ccc2c(c1)CN(Cc1cn[nH]c1-c1ccc(F)cc1)CCO2 (centres undefined) | inactive: -13.1%
COC(=O)C1CCN(Cc2ccc3c(c2)CN(C(=O)C2Cc4ccccc4O2)CCO3)CC1 (centres undefined) | inactive: 14.5%
O=C(c1cc(C(F)(F)F)cc(C(F)(F)F)c1)N1CCC2(CCCN(c3ccccc3)C2)CC1 | inactive: -10.8%
COc1ccc(CNc2ccnc(-c3ccoc3)n2)c(OC)c1 | inactive: 0.91%
COc1ccc(Oc2ncc3nc(C)c(=O)n(C)c3n2)cc1 | inactive: 15.2%
Cc1cnc(SCc2ccccn2)nc1C1CCCN(Cc2ccsc2)C1 (centres undefined) | inactive: 23.6%
CCCCNc1c(C(=O)OCC)c(C)nc2c1cnn2CC | inactive
CSc1nc2cc(Oc3cccc(Cl)c3Cl)c(Cl)cc2[nH]1 | inactive: -13.9%
COc1cccc(-c2ccc3ncnc(N4CCNCC4)c3c2)c1 | inactive: 4.91%
CCCCC1(COC(=O)CCC(=O)O)C(=O)N(c2ccccc2)N(c2ccccc2)C1=O | inactive
O=c1c(-c2cccc(Cl)c2)nc2cncnc2n1Cc1ccc(F)cc1 | inactive: -2.65%
CC(C)c1ccc(Cn2ccc3c4c(N)nc(NC5CC5)nc4ccc32)cc1 | inactive: 0.281%
COc1ccccc1CN1CCC2(CC1)CCN(S(=O)(=O)c1ccccc1)CC2 | inactive: 20.4%
COc1cc(NC(C)CCCN)c2ncccc2c1 (centres undefined) | inactive
O=c1[nH]c(=O)n([C@H]2C[C@H](O)[C@@H](CO)O2)cc1Br | inactive
COc1ccc(/C(=C\C(=O)O)c2nccc3cc(OC)c(OC)cc23)cc1OC | inactive: 3%
CN(C)C(=O)c1ccc(-c2cncnc2NCc2cccnc2)cc1 | inactive: -14.7%
CS(=O)(=O)N1CCC[C@@]2(CCN(c3ccncc3)C2)C1 | inactive: 16.4%
COc1cccc(CN2c3ccc(Br)cc3C(=O)CS2(=O)=O)c1 | inactive: -14.1%
COc1ncc2nc(-c3ccccc3)c(=O)n(CCC#N)c2n1 | inactive: -3.07%
CN(C)c1ccc(/C=[N+]2\C(=O)CC(=O)NC2=O)cc1 | inactive: 10.7%
COc1cccc(OC)c1C(=O)N[C@@H]1C(=O)N2[C@@H]1SC(C)(C)[C@@H]2C(=O)O | inactive: 20%
COCCn1c(=O)c(-c2ccc(OC)cc2)nc2cnc(Nc3ccccc3)nc21 | inactive: 4.06%
